{"source": "the supplement of paper PMC8728848", "test_in_all_cases": "glycan array binding signal (z-score within array); higher = stronger binding", "conditions_in_all_cases": "glycan notation: IUPAC condensed, linker removed", "key": {"[1]": {"target": "Neu5Ac(a2-3)Gal(b1-4)GlcNAc", "how_it_was_run": "(§1)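 Arrays were curated from the Consortium for Functional Glycomics database, 3228 in total, and kept only where the protein sequence was available. Binding is expressed as a within-array Z-score. This score was averaged across arrays of the same protein sequence at different concentrations or buffers and across linkers, and negative values can be read as non-binding.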"}, "[2]": {"target": "Neu5Ac(a2-3)Gal(b1-4)GlcNAc(b1-2)Man(a1-3)[GlcNAc(b1-2)Man(b1-4)GlcNAc(b1-2)Man(a1-6)]Man(b1-4)GlcNAc(b1-4)GlcNAc", "how_it_was_run": "as §1"}, "[3]": {"target": "Neu5Ac(a2-3)Gal(b1-4)GlcNAc(b1-2)Man(a1-3)[Neu5Ac(a2-6)Gal(b1-4)GlcNAc(b1-2)Man(a1-6)]Man(b1-4)GlcNAc(b1-4)GlcNAc", "how_it_was_run": "as §1"}, "[4]": {"target": "Neu5Ac(a2-3)Gal(b1-4)GlcNAc(b1-3)Gal(b1-3)GlcNAc", "how_it_was_run": "as §1"}, "[5]": {"target": "Neu5Ac(a2-3)Gal(b1-4)GlcNAc(b1-3)Gal(b1-4)GlcNAc", "how_it_was_run": "as §1"}, "[6]": {"target": "Neu5Ac(a2-3)Gal(b1-4)GlcNAc(b1-3)Gal(b1-4)GlcNAc(b1-3)Gal(b1-4)GlcNAc", "how_it_was_run": "as §1"}, "[7]": {"target": "Neu5Ac(a2-3)Gal(b1-4)GlcNAc(b1-3)Gal(b1-4)[Fuc(a1-3)]GlcNAc", "how_it_was_run": "as §1"}, "[8]": {"target": "Neu5Ac(a2-3)Gal(b1-4)GlcNAc(b1-3)GalNAc", "how_it_was_run": "as §1"}, "[9]": {"target": "Neu5Ac(a2-3)Gal(b1-4)GlcNAc(b1-6)[Gal(b1-3)]GalNAc", "how_it_was_run": "as §1"}, "[10]": {"target": "Neu5Ac(a2-3)Gal(b1-4)GlcNAc(b1-6)[Neu5Ac(a2-3)Gal(b1-3)]GalNAc", "how_it_was_run": "as §1"}, "[11]": {"target": "Neu5Ac(a2-3)Gal(b1-4)GlcNAc6S", "how_it_was_run": "as §1"}, "[12]": {"target": "Neu5Ac(a2-3)Gal(b1-4)[Fuc(a1-3)]GlcNAc", "how_it_was_run": "as §1"}, "[13]": {"target": "Neu5Ac(a2-3)Gal(b1-4)[Fuc(a1-3)]GlcNAc(b1-3)Gal", "how_it_was_run": "as §1"}, "[14]": {"target": "Neu5Ac(a2-3)Gal(b1-4)[Fuc(a1-3)]GlcNAc(b1-3)Gal(b1-4)GlcNAc", "how_it_was_run": "as §1"}, "[15]": {"target": "Neu5Ac(a2-3)Gal(b1-4)[Fuc(a1-3)]GlcNAc(b1-3)Gal(b1-4)[Fuc(a1-3)]GlcNAc(b1-3)Gal(b1-4)[Fuc(a1-3)]GlcNAc", "how_it_was_run": "as §1"}, "[16]": {"target": "Neu5Ac(a2-3)Gal(b1-4)[Fuc(a1-3)]GlcNAc(b1-3)GalNAc", "how_it_was_run": "as §1"}, "[17]": {"target": "Neu5Ac(a2-3)Gal(b1-4)[Fuc(a1-3)]GlcNAc(b1-6)[Gal(b1-3)]GalNAc", "how_it_was_run": "as §1"}, "[18]": {"target": "Neu5Ac(a2-3)Gal(b1-4)[Fuc(a1-3)]GlcNAc(b1-6)[Neu5Ac(a2-3)Gal(b1-3)]GalNAc", "how_it_was_run": "as §1"}, "[19]": {"target": "Neu5Ac(a2-3)Gal(b1-4)[Fuc(a1-3)]GlcNAc6S", "how_it_was_run": "as §1"}, "[20]": {"target": "Neu5Ac(a2-3)Gal6S(b1-4)GlcNAc", "how_it_was_run": "as §1"}, "[21]": {"target": "Neu5Ac(a2-3)Gal6S(b1-4)[Fuc(a1-3)]GlcNAc", "how_it_was_run": "as §1"}, "Neu5Ac(a2-3)GalNAc": {"target": "Neu5Ac(a2-3)GalNAc", "how_it_was_run": "as §1"}, "[22]": {"target": "Neu5Ac(a2-3)GalNAc(b1-4)GlcNAc", "how_it_was_run": "as §1"}, "[23]": {"target": "Neu5Ac(a2-3)[GalNAc(b1-4)]Gal(b1-4)Glc", "how_it_was_run": "as §1"}, "[24]": {"target": "Neu5Ac(a2-3)[GalNAc(b1-4)]Gal(b1-4)GlcNAc", "how_it_was_run": "as §1"}, "[25]": {"target": "Neu5Ac(a2-3)[GalNAc(b1-4)]Gal(b1-4)GlcNAc(b1-3)GalNAc", "how_it_was_run": "as §1"}, "[26]": {"target": "Neu5Ac(a2-3)[Neu5Ac(a2-6)]GalNAc", "how_it_was_run": "as §1"}, "Neu5Ac(a2-6)Gal": {"target": "Neu5Ac(a2-6)Gal", "how_it_was_run": "as §1"}, "Neu5Ac(a2-6)Gal(b1-4)Glc": {"target": "Neu5Ac(a2-6)Gal(b1-4)Glc", "how_it_was_run": "as §1"}, "[27]": {"target": "Neu5Ac(a2-6)Gal(b1-4)GlcNAc", "how_it_was_run": "as §1"}, "[28]": {"target": "Neu5Ac(a2-6)Gal(b1-4)GlcNAc(b1-2)Man(a1-3)Man(b1-4)GlcNAc(b1-4)GlcNAc", "how_it_was_run": "as §1"}, "[29]": {"target": "Neu5Ac(a2-6)Gal(b1-4)GlcNAc(b1-2)Man(a1-3)[Gal(b1-4)GlcNAc(b1-2)Man(a1-6)]Man(b1-4)GlcNAc(b1-4)GlcNAc", "how_it_was_run": "as §1"}, "[30]": {"target": "Neu5Ac(a2-6)Gal(b1-4)GlcNAc(b1-2)Man(a1-3)[GlcNAc(b1-2)Man(a1-6)]Man(b1-4)GlcNAc(b1-4)GlcNAc", "how_it_was_run": "as §1"}, "[31]": {"target": "Neu5Ac(a2-6)Gal(b1-4)GlcNAc(b1-2)Man(a1-3)[GlcNAc(b1-2)Man(b1-4)GlcNAc(b1-2)Man(a1-6)]Man(b1-4)GlcNAc(b1-4)GlcNAc", "how_it_was_run": "as §1"}, "[32]": {"target": "Neu5Ac(a2-6)Gal(b1-4)GlcNAc(b1-2)Man(a1-3)[Man(a1-6)]Man(b1-4)GlcNAc(b1-4)GlcNAc", "how_it_was_run": "as §1"}}, "note": "This is one part of the list."}
{"binder": "GH98CBM51-1 (Streptococcus pneumoniae) (protein) MTYLSDMDWSSATHGDIDKTKTVQKDAPFTTGNKGEHTKISLLTSDDKVKYFDKGIGTVADSPSVISYDISGQGFEKFETYIGIDQSANSSRSDHAVVDRIEIEIDGKVVYSSSVTNPEGFRYNTQAQFISVTIPQNAKKISLKSFAGEHTWGDEVVFADAKLIKTVST", "values": [{"measurement": "glycan array binding signal (z-score)", "setting": "[1]", "result": -0.162}, {"measurement": "glycan array binding signal (z-score)", "setting": "[2]", "result": -0.191}, {"measurement": "glycan array binding signal (z-score)", "setting": "[3]", "result": -0.193}, {"measurement": "glycan array binding signal (z-score)", "setting": "[4]", "result": -0.197}, {"measurement": "glycan array binding signal (z-score)", "setting": "[5]", "result": -0.193}, {"measurement": "glycan array binding signal (z-score)", "setting": "[6]", "result": -0.19}, {"measurement": "glycan array binding signal (z-score)", "setting": "[7]", "result": -0.191}, {"measurement": "glycan array binding signal (z-score)", "setting": "[8]", "result": -0.153}, {"measurement": "glycan array binding signal (z-score)", "setting": "[9]", "result": -0.195}, {"measurement": "glycan array binding signal (z-score)", "setting": "[10]", "result": -0.189}, {"measurement": "glycan array binding signal (z-score)", "setting": "[11]", "result": -0.191}, {"measurement": "glycan array binding signal (z-score)", "setting": "[12]", "result": -0.191}, {"measurement": "glycan array binding signal (z-score)", "setting": "[13]", "result": -0.192}, {"measurement": "glycan array binding signal (z-score)", "setting": "[14]", "result": -0.175}, {"measurement": "glycan array binding signal (z-score)", "setting": "[15]", "result": -0.193}, {"measurement": "glycan array binding signal (z-score)", "setting": "[16]", "result": -0.15}, {"measurement": "glycan array binding signal (z-score)", "setting": "[17]", "result": -0.185}, {"measurement": "glycan array binding signal (z-score)", "setting": "[18]", "result": -0.183}, {"measurement": "glycan array binding signal (z-score)", "setting": "[19]", "result": -0.182}, {"measurement": "glycan array binding signal (z-score)", "setting": "[20]", "result": -0.187}, {"measurement": "glycan array binding signal (z-score)", "setting": "[21]", "result": -0.15}, {"measurement": "glycan array binding signal (z-score)", "setting": "Neu5Ac(a2-3)GalNAc", "result": -0.199}, {"measurement": "glycan array binding signal (z-score)", "setting": "[22]", "result": -0.19}, {"measurement": "glycan array binding signal (z-score)", "setting": "[23]", "result": -0.196}, {"measurement": "glycan array binding signal (z-score)", "setting": "[24]", "result": -0.19}, {"measurement": "glycan array binding signal (z-score)", "setting": "[25]", "result": -0.189}, {"measurement": "glycan array binding signal (z-score)", "setting": "[26]", "result": -0.189}, {"measurement": "glycan array binding signal (z-score)", "setting": "Neu5Ac(a2-6)Gal", "result": -0.187}, {"measurement": "glycan array binding signal (z-score)", "setting": "Neu5Ac(a2-6)Gal(b1-4)Glc", "result": -0.192}, {"measurement": "glycan array binding signal (z-score)", "setting": "[27]", "result": -0.193}, {"measurement": "glycan array binding signal (z-score)", "setting": "[28]", "result": -0.191}, {"measurement": "glycan array binding signal (z-score)", "setting": "[29]", "result": -0.192}, {"measurement": "glycan array binding signal (z-score)", "setting": "[30]", "result": -0.19}, {"measurement": "glycan array binding signal (z-score)", "setting": "[31]", "result": -0.192}, {"measurement": "glycan array binding signal (z-score)", "setting": "[32]", "result": -0.19}]}
